Measured values as given in PubChem BioAssay AID624202 (National Center for Advancing Translational Sciences (NCATS), 2012).
Out of some 380,000 compounds screened, about 4,000 (1.1%) were called active. This list was built around the results that the source calls inconclusive (neither active nor inactive); the mix of calls is not that of the screen. Calls follow the shape of the dose curve; as a rule, active = well fitted activation curve with a large enough effect; inconclusive = small, poorly fitted or top-dose-only effect; inactive = no such curve, though single readings can be large or run the other way. Potencies of inconclusive entries are doubtful fits and often do not repeat.
Tags tell the direction and shape of the fitted curve.

Assay: qHTS Assay to Identify Small Molecule Activators of BRCA1 Expression; also: nearly all actives have a fitted effect of over 80% in size
Details: MCF7-BRCA1-FFLuc reporter, luminescence, 48 h; activation: at 46.1 µM (top of the series), scaled: vehicle 0%, 10 µM genistein 100% unless noted
Outline: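 Cells: MCF7-BRCA1-FFLuc, 2000/well. Exposure: 48 h, 37 °C, 5% CO2. Read: luminescence, 15 min post-substrate. Controls: genistein 10 microM (maximal activation), DMSO (neutral).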
With `C/C(=C\c1ccccc1)C(=O)Nc1nccs1` the Potency was active: 3.16 µM. With `CCN1CCN(Cc2ccc(NC(=O)Nc3ccccc3Cl)cc2)CC1` the Potency was inconclusive: 1.26 µM [activator, full curve, poor fit]. With `CC(=O)c1ccc(NC(=O)c2onc(C)c2Cl)cc1` the Potency was inconclusive: 1.58 µM [activator, partial curve, poor fit]. In the case of `COCc1nn2c(N)c(-c3ccccc3)cnc2c1-c1ccccc1`, the Potency is reported as inconclusive: 2.82 µM [activator, full curve, poor fit]. For `Cc1ccc(C(=O)Oc2oc(-c3ccccc3)nc2C=Nc2ccc(N(C)C)cc2)cc1`, the Potency was inconclusive: 0.562 µM [activator, full curve, poor fit]. With `c1ccc2c(c1)COc1c3ncccc3nn1-2` the Potency was inconclusive: 14.1 µM [activator, partial curve, poor fit]. With `COc1cccc(N2CN(CCc3ccccc3)CNC2=S)c1` the “activation” value was inactive: 12.6%. With `COc1ccc(-n2nc([N+](=O)[O-])c(=NCc3ccc4c(c3)OCO4)n2O)cc1` the Potency was inconclusive: 20 µM [activator, single point]. In the case of `NS(=O)(=O)c1ccc(N=C2C(=O)Nc3ccccc32)cc1`, the “activation” value is reported as inactive: 3.11%. For `COc1ccc(-n2c(C)cc(/C=C3\SC(=S)NC3=O)c2C)cc1`, the Potency was inconclusive: 11.2 µM [activator, partial curve, poor fit]. For `Cn1c(C(=O)NCc2cccs2)cc2oc3ccccc3c21`, the Potency was active: 12.6 µM. With `O=C1c2ccccc2C(=O)C1(CO)c1ccccc1` the Potency was inconclusive: 11.2 µM [activator, partial curve, poor fit]. In the case of `N#Cc1cc2c(nc1SCC1COc3ccccc3O1)CCC2` (stereo unspecified), the Potency is reported as active: 8.91 µM. In the case of `O=c1[nH]c(COc2ccc(Cl)cc2Br)nc2ccccc12`, the Potency is reported as inconclusive: 6.31 µM [activator, full curve, poor fit]. For `CCSc1nnc(NC(=O)c2cccnc2Cl)s1`, the Potency was inconclusive: 12.6 µM [activator, single point]. In the case of `COc1cc(NC(=O)C(C)C)ccc1NC(=O)c1ccco1`, the Potency is reported as inconclusive: 2.82 µM [activator, full curve, poor fit]. In the case of `O=C(Nc1ccc(N2CCOCC2)nc1)c1cccs1`, the Potency is reported as inconclusive: 20 µM [activator, single point]. For `COc1ccccc1-c1ccc(SCc2ccc(F)cc2)nn1`, the Potency was inconclusive: 20 µM [activator, partial curve, poor fit]. In the case of `O=C1c2ccccc2NC(c2ccc(-c3ccc(F)cc3)o2)N1O` (stereo unspecified), the Potency is reported as inconclusive: 2.51 µM [activator, partial curve, poor fit]. For `O=C(C1CC(c2ccccc2O)=NO1)N1CCCCC1` (stereo unspecified), the Potency was active: 10 µM. In the case of `Cc1cc(NCc2ccccn2)n2nc(C)c(-c3ccc(Cl)cc3)c2n1`, the “activation” value is reported as inactive: -77.8%. With `C/C(=N\NC(N)=O)c1ccc(-n2ccnc2)cc1` the “activation” value was inactive: -9.41%. For `CCC(CC)c1nnc(NC(=O)C2COc3ccccc3O2)s1` (stereo unspecified), the Potency was inconclusive: 1.58 µM [activator, partial curve, poor fit]. For `CCOc1cccc(/C=C/c2ccc3ccccc3n2)c1OC(C)=O`, the Potency was inconclusive: 0.631 µM [activator, full curve, poor fit]. In the case of `Cc1ccc(NC(=O)CCCC2CCCCC2)c(O)c1`, the Potency is reported as active: 12.6 µM. For `Cc1c(O)ccc2cc(S(=O)(=O)c3ccccc3)c(=O)oc12`, the “activation” value was inactive: -47%. In the case of `CC(=O)Nc1ccc2oc(-c3ccccc3)nc2c1`, the Potency is reported as inconclusive: 0.562 µM [activator, full curve, poor fit]. In the case of `COc1ccc(C(=O)NCCS(=O)(=O)NCCc2ccccc2)cc1`, the Potency is reported as active: 4.47 µM. In the case of `CN(C)C(=O)C(Sc1ccc(S(=O)(=O)N2CCCC2)cn1)c1ccccc1` (stereo unspecified), the “activation” value is reported as inactive: -0.585%. In the case of `Cc1occc1C(=O)N/N=C/C=C/c1ccc(N(C)C)cc1`, the Potency is reported as inconclusive: 2 µM [activator, partial curve, poor fit]. In the case of `COc1ccc(C2CC2C(=O)c2ccccn2)cc1` (stereo unspecified), the Potency is reported as active: 8.91 µM. In the case of `O=C1c2ccccc2C(=O)N1CCc1c[nH]c2ccccc12`, the Potency is reported as active: 2.24 µM. In the case of `Nc1ncnc2c1C1(CCCCC1)Cc1ccccc1-2`, the “activation” value is reported as inactive: -9.94%. In the case of `CSc1nnc2c(n1)OC1(Nc3ccccc3-2)C(=O)Nc2ccccc21` (stereo unspecified), the “activation” value is reported as inactive: -25.3%. For `O=C(/C=C/c1ccccc1)Nc1ccc2c(c1)OCCO2`, the Potency was inconclusive: 0.631 µM [activator, full curve, poor fit]. For `Cc1ccc(NC(=S)NC(=O)C2CC2)c(C)c1`, the Potency was active: 11.2 µM. For `Cn1c(=O)n(-c2ccc(C(C)(C)C#N)cc2)c2c3cc(-c4cnc5ccccc5c4)ccc3ncc21`, the “activation” value was inactive: -57.2% [at 92.2 µM, scaled: vehicle 0%, 10 µM genistein 100%]. For `CCOc1cccc(C(=O)NC2CCCCC2)c1`, the Potency was inconclusive: 12.6 µM [activator, partial curve, poor fit]. With `O=C(Cc1ccc(OCCCCc2ccccc2)cc1)NO` the “activation” value was inactive: 32.5%. With `CC(=O)Oc1ccc2nc(-c3cccs3)oc(=O)c2c1` the “activation” value was inactive: 1.47%. For `Cc1ccc(/C=C2\SC(N3CCCCC3)=NC2=O)cc1`, the Potency was inconclusive: 20 µM [activator, single point]. With `O=C(c1ccc(-c2nnc(-c3ccccc3)o2)cc1)N1CCCCCC1` the Potency was inconclusive: 0.631 µM [activator, full curve, poor fit]. In the case of `Cc1cccc(-c2noc(CCC(=O)NCCc3ccccc3)n2)c1`, the “activation” value is reported as inactive: 64.4%. In the case of `COc1ccc(/C=C2\CCn3c2nc2ccccc2c3=O)cc1OC`, the Potency is reported as inconclusive: 2.24 µM [activator, full curve, poor fit]. For `Cc1ccc(NC(=S)NNC(=O)c2nn(C)c(C)c2Cl)cc1`, the Potency was inconclusive: 15.8 µM [activator, partial curve, poor fit]. For `CCOC(=O)N1CCN(C(c2ccc(F)cc2)c2sc3nc(C)nn3c2O)CC1` (stereo unspecified), the “activation” value was inactive: 3.51%. For `Cc1ccc(NC(=O)c2ccc(=O)[nH]n2)cc1C`, the Potency was inconclusive: 11.2 µM [activator, partial curve, poor fit]. In the case of `Cc1ccc2nc(NC(=O)c3ccccc3F)sc2c1`, the activation is reported as inconclusive: -20.5% [activator]. In the case of `CS/C(=C\[N+](=O)[O-])Nc1ccccc1`, the “activation” value is reported as inactive: -10.8%. For `CCOC(=O)CNC(=O)c1sc2ncnc(N3CCc4ccccc4C3)c2c1C`, the “activation” value was inactive: -56.6%. For `O=C(CN1C(=O)c2cccc3cccc(c23)C1=O)NCCN1CCOCC1`, the “activation” value was inactive: 2.16%. With `CC(C)C(=O)Nc1ccc(NC(=O)c2ccccc2Cl)nc1` the Potency was inconclusive: 12.6 µM [activator, partial curve, poor fit]. For `CCc1nnc(NC(=O)CSc2ncnc3scc(-c4ccc(C)cc4)c23)s1`, the “activation” value was inactive: -15.6%. For `Clc1cccc(N/N=C(\Cc2nc3ccccc3[nH]2)c2ccccc2)c1`, the “activation” value was inactive: -61.8%. With `COc1ccc(COC(=O)c2n[nH]c3ccccc23)cc1F` the Potency was active: 14.1 µM. In the case of `C/C(=N\NC(=O)c1cccc(O)c1)c1ccc(NC(=O)Cc2ccccc2)cc1`, the Potency is reported as inconclusive: 17.8 µM [activator, partial curve, poor fit]. For `COC(=O)c1c(C)[nH]c(C(=O)CSc2ccc(Cl)cc2)c1C`, the Potency was inconclusive: 1.78 µM [activator, full curve, poor fit]. In the case of `CC1CCCC(NC(=O)CCNS(=O)(=O)c2ccc(Br)cc2)C1C` (stereo unspecified), the “activation” value is reported as inactive: -13.8%. With `O=C(CSc1cnc2ccccc2n1)c1ccc(F)cc1` the Potency was inconclusive: 3.55 µM [activator, full curve, poor fit]. With `O=C(c1ccc(COc2ccc3c(c2)CCC3)o1)N1CCN(c2ccccc2)CC1` the Potency was inconclusive: 20 µM [activator, partial curve, poor fit]. With `COc1ccc(Nc2nc(N)nc(SCc3nnc(C)s3)n2)cc1` the Potency was inconclusive: 22.4 µM [activator, single point]. In the case of `CCOC(=O)C(=O)N(Nc1ccc(C)cc1)c1ccc(C)cc1`, the Potency is reported as active: 11.2 µM. With `O=C(CCNC(=O)N1CC(=O)Nc2ccccc21)Nc1ccc(Br)cc1F` the “activation” value was inactive: -0.768%. With `O=C(/C=C/c1ccccc1)Nc1scc(-c2ccccc2)c1C(=O)O` the Potency was inconclusive: 1.58 µM [activator, full curve, poor fit]. For `Cc1ccc2cc(NC(=O)c3ccccc3C)ccc2n1`, the Potency was active: 7.08 µM. With `O=C(O)CCC(=O)Nc1sc2c(c1C(=O)Nc1ccccc1)CCCCC2` the “activation” value was inactive: -41.2%. For `CCCCCN(C(=O)CSc1n[nH]c(-c2ccc(C)cc2)n1)c1c(N)n(CCCC)c(=O)[nH]c1=O`, the Potency was inconclusive: 15.8 µM [activator, single point]. For `CCOc1ccc(NC(=O)Nc2cccnc2)cc1`, the Potency was inconclusive: 14.1 µM [activator, partial curve, poor fit]. In the case of `O=C(Nc1cccc(Cl)c1)c1ccccc1`, the Potency is reported as inconclusive: 12.6 µM [activator, partial curve, poor fit]. With `O=C(NCCCc1ccccc1)c1ccc(Br)o1` the Potency was inconclusive: 12.6 µM [activator, partial curve, poor fit]. With `COc1ccc(Cl)cc1NC(=O)COC(=O)C(CC(C)C)N1C(=O)C2CC=CCC2C1=O` (stereo unspecified) the Potency was inconclusive: 35.5 µM [activator, single point]. For `Cc1cc(N/N=C/c2ccncc2)nc2ccccc12`, the Potency was active: 5.62 µM. In the case of `COc1cc(Cl)ccc1OCc1cc(C(=O)N(C)CCc2cnn(C)c2)no1`, the Potency is reported as active: 7.08 µM. With `C/C(=N\O)c1ccc2c3ccccc3n(C)c2c1` the Potency was inconclusive: 12.6 µM [activator, partial curve, poor fit]. For `COc1ccc(-c2nc(C#N)c(NCCc3ccccc3)o2)cc1`, the Potency was inconclusive: 11.2 µM [activator, partial curve, poor fit]. With `CCc1ccc2nc(N3CCN(C(=O)C(C)(C)C)CC3)sc2c1` the Potency was active: 12.6 µM.
